{
  "source": "PubChem BioAssay AID1346428",
  "about": "(National Center for Advancing Translational Sciences (NCATS), 2018)",
  "note": "About 1,200 (2.5%) of roughly 48,000 compounds were called active. Not shown: some 2% with an inconclusive outcome.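 Rule for the calls: active = activation of at least 60% and not above a set upper limit (about 1 call in 100 departs from these limits); inconclusive = activation of 40% to 60%, or above that upper limit; inactive = activation under 40%.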 Some of the results follow.",
  "data": [
    {"biological_target": "Probable G-protein coupled receptor 32 (Homo sapiens) (UniProt O75388)", "sequence (O75388 whole entry, looked up, the tested form may be a part)": "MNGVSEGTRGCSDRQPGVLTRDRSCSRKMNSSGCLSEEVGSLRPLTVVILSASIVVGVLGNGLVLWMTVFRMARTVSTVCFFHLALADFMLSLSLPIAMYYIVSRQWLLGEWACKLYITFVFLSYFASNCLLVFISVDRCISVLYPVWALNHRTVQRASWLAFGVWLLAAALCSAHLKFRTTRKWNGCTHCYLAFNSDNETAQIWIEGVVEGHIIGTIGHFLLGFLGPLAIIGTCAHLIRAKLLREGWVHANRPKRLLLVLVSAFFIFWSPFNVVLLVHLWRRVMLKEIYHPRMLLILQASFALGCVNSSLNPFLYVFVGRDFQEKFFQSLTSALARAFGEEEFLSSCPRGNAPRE", "assay": "qHTS for Agonists of Human Resolvin D1 Receptor DRV1; note: 0% is about no effect", "details": "CHO-K1 GPR32 beta-arrestin PathHunter luminescence, 90 min; at 76.9 µM; hits give high values; zero percent set by DMSO-only wells", "summary_of_the_method": "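PathHunter enzyme-fragment complementation, CHO-K1 GPR32 stable line; 2,500 cells/well, overnight attach; cpd 90 min 37 °C 5% CO2; detection reagent 1 h RT; chemiluminescence. DMSO = EC0.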", "values": [
      {"smiles": "CCOc1ccc(NC(=O)CCCn2c(C)c3cnn(-c4ccccc4)c(=O)c3c2C)cc1", "activation": "inactive: -33.6%"},
      {"smiles": "CCOc1cccc(CNCCCSc2nnnn2C)c1", "activation": "inactive: 3.85%"},
      {"smiles": "COc1ccc(OC)c(NC(=O)CSC2=Nc3ccccc3C3=NC(CC(=O)NCCc4ccccc4)C(=O)N23)c1", "note": "(centres undefined)", "activation": "inactive: -6.84%"},
      {"smiles": "COc1ccc(S(=O)(=O)n2nc(C)c(S(=O)(=O)N3CCCCCC3)c2C)cc1C", "activation": "inactive: -8.64%"},
      {"smiles": "N#Cc1cc([N+](=O)[O-])c2sc(C(N)=O)[n+]([O-])c2c1", "activation": "inactive: 21.9%"},
      {"smiles": "CN1CCN(c2nc3c(S(=O)(=O)c4ccc(Cl)cc4)nnn3c3ccsc23)CC1", "activation": "inactive: -0.0358%"},
      {"smiles": "CC(=O)Nc1ccc(C)cc1-c1nc2ccccc2n(CC(=O)c2ccc(C)c(C)c2)c1=O", "activation": "inactive: -5.93%"},
      {"smiles": "CCOC(=O)c1c(N)n(-c2ccc(CC)cc2)c2nc3ccccc3nc12", "activation": "inactive: 2.68%"},
      {"smiles": "O=C(NCCc1csc(-c2ccc(C(F)(F)F)cc2)n1)C(=O)Nc1ccc(F)c(Cl)c1", "activation": "inactive: -7.23%"},
      {"smiles": "CCOc1ccccc1NS(=O)(=O)c1ccc(N2CCCCS2(=O)=O)cc1", "activation": "inactive: -4.04%"},
      {"smiles": "Cc1ccc(N(CC(=O)N2CCN(c3ccccc3)CC2)S(=O)(=O)c2c(C)noc2C)cc1", "activation": "inactive: -3.7%"},
      {"smiles": "CC(C)CCCC(C)CCCC(C)CCCCC(C)CCCC(C)CCCC(C)C", "note": "(centres undefined)", "activation": "inactive: 38.5%"},
      {"smiles": "Cc1nc(-c2ccc(F)cc2)sc1CCNC(=O)c1cccs1", "activation": "inactive: 7.95%"},
      {"smiles": "O=C(CN1C(=O)CSc2ccc(S(=O)(=O)N3CCOCC3)cc21)NCCCN1CCCCC1", "activation": "inactive: 0.489%"},
      {"smiles": "Cc1ccc(C)c(NC(=O)Cn2c(SCC(=O)NCc3ccccc3)nc3ccccc32)c1", "activation": "inactive: -14.2%"},
      {"smiles": "CCc1ccc(NC(=O)Cn2c(=O)n(-c3ccccc3C)c(=O)c3c2c2cc(OC)ccc2n3C)cc1", "activation": "inactive: -6.46%"},
      {"smiles": "COc1ccc(NC(=O)CSc2nc3ccccc3nc2N2CCCCC2)cc1", "activation": "inactive: -3.72%"},
      {"smiles": "CC(=O)N1CCOc2cc(S(=O)(=O)NCc3ccccc3Cl)c(Cl)cc21", "activation": "inactive: -6.66%"},
      {"smiles": "CCOc1ccc(NC(=O)Cn2nc3c(cc2=O)CC(C)CC3)cc1", "note": "(centres undefined)", "activation": "inactive: -10.2%"},
      {"smiles": "CCOC(=O)c1[nH]c2c(c1Cc1ccccc1)C(=O)CC(c1ccccc1)C2", "note": "(centres undefined)", "activation": "inactive: -30.9%"},
      {"smiles": "CCN1CCN(C(c2ccccc2Cl)c2sc3nc(-c4ccco4)nn3c2O)CC1", "note": "(centres undefined)", "activation": "inactive: -14.5%"},
      {"smiles": "CCOC(=O)c1ccccc1NC(=O)N1CCC(CN2CCOCC2)CC1", "activation": "inactive: -15.1%"},
      {"smiles": "CCOc1ccc(N(CC(=O)Nc2ccc(OC)cc2)S(=O)(=O)c2ccc(Cl)cc2)cc1", "activation": "inactive: -3.78%"},
      {"smiles": "Cc1ccc(-c2noc(-c3nnn(CC(=O)Nc4ccc(C)c(Cl)c4)c3N)n2)cc1", "activation": "inactive: 3.44%"},
      {"smiles": "CC(C)Oc1ccc(C(=O)NCC(c2ccc(N(C)C)cc2)N2CCc3ccccc32)cc1", "note": "(centres undefined)", "activation": "inactive: -25.7%"},
      {"smiles": "CCN(c1ccccc1)S(=O)(=O)c1nnc(NC(=O)C2CCCCC2)s1", "activation": "inactive: -15.7%"},
      {"smiles": "COc1ccc2c(c1)c(N1CCCC1=O)c(C(=O)Nc1cc(C)c(Cl)cc1OC)n2C", "activation": "inactive: 13.9%"},
      {"smiles": "CCn1c(=O)c2sccc2n2c(CCC(=O)Nc3ccc(F)cc3)nnc12", "activation": "inactive: 13.7%"},
      {"smiles": "Cc1ccc2c(C)c(C(=O)N(Cc3ccc(N(C)C)cc3)Cc3ccco3)oc2c1C", "activation": "inactive: -29.6%"},
      {"smiles": "O=C(CCSCCc1ccccn1)Nc1ccc(Cl)cc1", "activation": "inactive: 7.96%"},
      {"smiles": "O=C(Nc1ccc(Br)cc1)c1cc(S(=O)(=O)NC2CCCC2)ccc1F", "activation": "inactive: 12.2%"},
      {"smiles": "Cc1ccc2c(c1)cc1c(=O)n(Cc3ccccc3Cl)nc(C)n12", "activation": "inactive: 3.74%"},
      {"smiles": "COc1ccc(Nc2nn3c(=O)c4cc5c(cc4nc3s2)OCO5)c(OC)c1", "activation": "inactive: -6.73%"},
      {"smiles": "Cc1ccc(Cl)cc1-n1nnc(-c2nc(-c3ccc4c(c3)OCO4)no2)c1C", "activation": "inactive: -5.12%"},
      {"smiles": "Cc1cccc(N(C)S(=O)(=O)c2cc(-c3cnc(C4CC4)o3)ccc2C)c1", "activation": "inactive: 9.16%"},
      {"smiles": "O=C(CCNS(=O)(=O)c1ccc2c(c1)CCN2C(=O)C1CC1)N1CCN(c2cccc(Cl)c2)CC1", "activation": "active: 60.6%"},
      {"smiles": "CCOc1ccc(/C=C/C(=O)Nc2ccc3nc(N(CC)CC)cc(C)c3c2)cc1OC", "activation": "inactive: -21.2%"},
      {"smiles": "CCC(=O)N1c2ccc(S(=O)(=O)CCC(=O)Nc3ccc(OC)cc3OC)cc2CC1C", "note": "(centres undefined)", "activation": "inactive: -10.1%"},
      {"smiles": "CCc1ccc(C2c3c(-c4ccccc4O)n[nH]c3C(=O)N2Cc2cccnc2)cc1", "note": "(centres undefined)", "activation": "inactive: -12.9%"},
      {"smiles": "CCC(=O)N1CCc2cc(CNS(=O)(=O)c3ccc(CC(C)C)cc3)ccc21", "activation": "inactive: -11.3%"},
      {"smiles": "CCN1CCN(c2ncc3c(n2)CCN(Cc2ccccc2C)C3)CC1", "activation": "inactive: -25.4%"},
      {"smiles": "Cc1ccc(CS(=O)(=O)c2ncc(Cl)c(C(=O)Nc3nnc(C(C)C)s3)n2)cc1", "activation": "inactive: -12.9%"},
      {"smiles": "CCc1ccc(-n2nc(CO)c(C(=O)NC)n2)cc1", "activation": "inactive: -2.04%"},
      {"smiles": "COc1ccc(-c2nc(CS(=O)CC(=O)NCCc3ccc(Cl)cc3)c(C)o2)cc1OC", "note": "(centres undefined)", "activation": "inactive: -11.6%"},
      {"smiles": "CC(C)CCNC(=O)C1CCN(C(=O)c2cc3sccc3n2Cc2ccc(Cl)cc2)CC1", "activation": "inactive: -14.7%"},
      {"smiles": "CCCS(=O)(=O)N1CC(=O)N(c2ccc(C)c(Cl)c2)C(C)(C(=O)NC2CCCCCC2)C1", "note": "(centres undefined)", "activation": "inactive: -5.74%"},
      {"smiles": "Cc1cccc(N2CCN(C(=O)Cn3c(-c4cccs4)cc4ccccc43)CC2)c1C", "activation": "inactive: -10.1%"},
      {"smiles": "Cc1ccc2c(CC(=O)Nc3ccc(S(=O)(=O)N4CCCCC4)cc3)coc2c1C", "activation": "inactive: -10.1%"},
      {"smiles": "COc1cc(CN(C(=O)c2ccccc2F)C2CCS(=O)(=O)C2)cc(OC)c1OC", "note": "(centres undefined)", "activation": "inactive: -6.42%"},
      {"smiles": "CN1C(=O)C2(c3ccccc31)N(c1cccc(C(F)(F)F)c1)C(=O)CS2(=O)=O", "note": "(centres undefined)", "activation": "inactive: 2.97%"},
      {"smiles": "CCCCNC(=O)CCCN1C(=O)c2ccccc2Sc2ncccc21", "activation": "inactive: -16.6%"},
      {"smiles": "Oc1c(C(c2ccc(F)cc2)N2CCN(Cc3ccccc3)CC2)sc2nc(-c3ccco3)nn12", "note": "(centres undefined)", "activation": "active: 64.8%"},
      {"smiles": "COC(=O)c1sccc1S(=O)(=O)N(CC(=O)Nc1cccc(C)c1C)c1ccc(C)c(C)c1", "activation": "inactive: -19%"},
      {"smiles": "COc1ccccc1CNC(=O)Cn1cc2c(n1)-c1c(oc(C(=O)N3CCOCC3)c1C)CC2", "activation": "inactive: -16.5%"},
      {"smiles": "COc1cc(OC)c(NC(=O)Cn2ncn3c(cc4cc(C)ccc43)c2=O)cc1Cl", "activation": "inactive: -9.4%"},
      {"smiles": "Cc1cccc(NC(=O)CSC2=Nc3ccccc3C3=NC(CCC(=O)NCc4ccco4)C(=O)N23)c1", "note": "(centres undefined)", "activation": "inactive: -5.96%"},
      {"smiles": "CCc1ccc(-c2cn3nc(CC)sc3n2)cc1", "activation": "inactive: -9.28%"},
      {"smiles": "CCc1ccccc1NC(=O)c1ccc2c(c1)CCCN2S(C)(=O)=O", "activation": "inactive: -5.79%"},
      {"smiles": "Cc1ccc(-c2onc(C)c2C)cc1S(=O)(=O)Nc1ccccn1", "activation": "inactive: -4.94%"},
      {"smiles": "COc1ccc2c(c1)c1c(c(=O)n(CCc3ccccc3)c(=O)n1Cc1cccc(F)c1)n2C", "activation": "inactive: -25.7%"},
      {"smiles": "CCSc1nc2ccccc2c(OCc2ccc(Cl)cc2)c1C(=O)OC", "activation": "inactive: -17.7%"},
      {"smiles": "COc1ccc2c(C)c(CC(=O)NCc3ccccc3Cl)c(=O)oc2c1OC", "activation": "inactive: -2.39%"},
      {"smiles": "CC(C)CN(CCNC(=O)CCN1N=C(c2ccccc2)CCC1=O)CC(C)C", "activation": "inactive: -6.82%"},
      {"smiles": "CN(C)S(=O)(=O)N1CCC(n2c(C(F)(F)F)nc3cccnc32)CC1", "activation": "inactive: 16.2%"},
      {"smiles": "CC(C)(C)OC(=O)N1CCC(c2c(C(=O)N3CCN(Cc4ccccc4)CC3)cnn2-c2cccc(Cl)c2)CC1", "activation": "inactive: -10.6%"},
      {"smiles": "COc1ccc(Cn2c(CO)cnc2SCc2ccc(C)cc2)cc1", "activation": "inactive: -4.41%"},
      {"smiles": "COc1ccc(CCNC(=O)CN(c2ccccc2)S(=O)(=O)N(C)C)cc1OC", "activation": "inactive: -8.12%"},
      {"smiles": "COc1ccc(-c2nc3cc(NC(=O)COc4ccccc4C)ccc3o2)cc1", "activation": "inactive: -3.7%"},
      {"smiles": "CCc1cccc(C)c1NC(=O)CSc1nc2ccccc2nc1Cc1ccccc1", "activation": "inactive: -12.7%"},
      {"smiles": "Cc1ccc(NC(=O)c2oc3ccc(S(=O)(=O)N4CCC5(CC4)OCCO5)cc3c2C)cc1Cl", "activation": "inactive: -14.6%"},
      {"smiles": "CC(=O)N1CCC(N(CCCOC(C)C)C(=O)Nc2ccc(C)c(C)c2)CC1", "activation": "inactive: -12.9%"},
      {"smiles": "O=C(CN1C(=O)CCSc2ccc(S(=O)(=O)N3CCCC3)cc21)Nc1cccc(F)c1", "activation": "inactive: -15.7%"},
      {"smiles": "CCOC(=O)c1c(NC(=O)c2cc(-c3ccc(OC)c(OC)c3)on2)sc2c1CCCC2", "activation": "inactive: 20.2%"},
      {"smiles": "CCc1c(C)sc2c1CCN(Cc1ccc(C#N)cc1)C2c1ccccc1", "note": "(centres undefined)", "activation": "inactive: -11.8%"},
      {"smiles": "COC(=O)CC1Oc2ccccc2-n2cc(-c3ccc(F)cc3)nc21", "note": "(centres undefined)", "activation": "inactive: 45.3%"},
      {"smiles": "COc1cc(C(c2c(C)[nH][nH]c2=O)c2c(C)[nH][nH]c2=O)ccc1OC(=O)c1ccccc1OC", "activation": "inactive: -34.3%"},
      {"smiles": "CCOC(=O)C(C)NC(=O)c1c2c(nc3ccccc13)C(=O)N(C1CCCCC1)C2", "note": "(centres undefined)", "activation": "inactive: -2.49%"},
      {"smiles": "Fc1ccc(Nc2nc3ccccc3n3cnnc23)c(F)c1", "activation": "inactive: 4.55%"},
      {"smiles": "O=C(c1ccc(F)cc1)n1nc(-c2cccnc2)nc1NCc1ccccc1", "activation": "inactive: -21.8%"},
      {"smiles": "COc1ccc(-n2ccnc(NCCc3ccccc3)c2=O)cc1OC", "activation": "inactive: 45.2%"},
      {"smiles": "COc1ccc(Oc2nc3c(c(=O)n(Cc4ccc(Br)cc4)c(=O)n3C)n2C)cc1", "activation": "inactive: 6.15%"},
      {"smiles": "COc1cccc(C(=O)N(Cc2nc(-c3ccc(Cl)cc3)no2)C(C)C)c1OC", "activation": "inactive: 10.1%"},
      {"smiles": "COc1ccc(NC(=O)c2nc(-c3ccc(C)cc3)n3c2CCCCC3)cc1", "activation": "inactive: -24.2%"},
      {"smiles": "CCSc1nc2ccccc2c(OCc2ccccc2Cl)c1C(=O)OC", "activation": "inactive: -8.63%"}
    ]}
  ]
}
